These are yes or no findings as the source states them, for the method shown. Binding seen in cells or lysates may run through a third protein. Some results given as binding are weak or reduced against the parent protein; the word gives no strength.
Experiments:
[1] = target: T1, cadherin-11 (mouse (endogenous in P14 forebrain)) (UniProt P55288); experiment: co-IP; P14 mouse forebrain lysate (20 mM Tris pH 7.5, 150 mM NaCl, 1% Triton X-100), 0.5 mg protein extract precleared; IP with 2 μg anti-cadherin-8 or 7 μg anti-cadherin-11 for 2 h at 4°C, Protein-G or rProtein A Sepharose, three washes in lysis buffer; Western blot; mouse or rabbit IgG as control
T1 sequence: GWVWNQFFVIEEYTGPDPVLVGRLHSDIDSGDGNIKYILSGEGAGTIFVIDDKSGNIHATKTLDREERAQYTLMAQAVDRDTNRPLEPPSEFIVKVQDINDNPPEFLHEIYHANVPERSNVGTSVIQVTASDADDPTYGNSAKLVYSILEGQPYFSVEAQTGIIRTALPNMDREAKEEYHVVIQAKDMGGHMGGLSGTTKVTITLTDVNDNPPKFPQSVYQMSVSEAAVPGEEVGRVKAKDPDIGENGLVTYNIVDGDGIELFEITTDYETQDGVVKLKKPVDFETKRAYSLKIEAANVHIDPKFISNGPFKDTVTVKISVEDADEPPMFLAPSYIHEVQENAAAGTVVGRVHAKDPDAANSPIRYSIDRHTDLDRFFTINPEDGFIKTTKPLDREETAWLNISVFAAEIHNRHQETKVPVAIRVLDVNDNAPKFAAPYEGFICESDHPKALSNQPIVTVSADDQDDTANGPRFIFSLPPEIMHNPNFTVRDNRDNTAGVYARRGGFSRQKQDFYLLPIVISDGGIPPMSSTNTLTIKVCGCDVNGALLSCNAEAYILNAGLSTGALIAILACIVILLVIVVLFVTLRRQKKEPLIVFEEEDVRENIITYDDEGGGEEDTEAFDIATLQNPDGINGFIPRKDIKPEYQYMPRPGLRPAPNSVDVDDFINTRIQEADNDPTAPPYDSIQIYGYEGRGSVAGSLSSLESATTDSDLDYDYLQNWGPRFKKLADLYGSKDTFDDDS

By UniProt entry, the sequences of proteins in these tests, tags left out. Residues count along the entry.
UniProt P15116, residues 160-906: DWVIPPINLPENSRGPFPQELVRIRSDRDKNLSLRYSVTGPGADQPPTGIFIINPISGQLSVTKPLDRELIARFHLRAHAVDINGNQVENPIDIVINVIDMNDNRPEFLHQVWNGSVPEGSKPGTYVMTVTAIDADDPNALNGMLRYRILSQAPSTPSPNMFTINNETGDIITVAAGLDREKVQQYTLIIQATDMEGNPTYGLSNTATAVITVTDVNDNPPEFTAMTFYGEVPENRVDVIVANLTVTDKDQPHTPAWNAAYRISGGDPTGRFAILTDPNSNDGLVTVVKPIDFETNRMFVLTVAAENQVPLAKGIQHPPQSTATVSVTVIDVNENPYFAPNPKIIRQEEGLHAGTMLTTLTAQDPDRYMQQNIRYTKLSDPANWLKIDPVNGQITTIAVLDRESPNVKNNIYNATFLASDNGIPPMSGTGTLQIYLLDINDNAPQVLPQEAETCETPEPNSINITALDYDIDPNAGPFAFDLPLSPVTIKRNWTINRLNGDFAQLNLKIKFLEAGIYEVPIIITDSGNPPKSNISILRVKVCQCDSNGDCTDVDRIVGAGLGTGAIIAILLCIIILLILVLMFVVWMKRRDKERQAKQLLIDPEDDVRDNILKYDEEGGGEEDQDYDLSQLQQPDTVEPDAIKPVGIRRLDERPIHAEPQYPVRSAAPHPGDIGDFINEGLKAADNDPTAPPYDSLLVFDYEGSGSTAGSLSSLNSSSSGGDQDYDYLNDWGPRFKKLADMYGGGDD
UniProt Q99K10, residues 46-843: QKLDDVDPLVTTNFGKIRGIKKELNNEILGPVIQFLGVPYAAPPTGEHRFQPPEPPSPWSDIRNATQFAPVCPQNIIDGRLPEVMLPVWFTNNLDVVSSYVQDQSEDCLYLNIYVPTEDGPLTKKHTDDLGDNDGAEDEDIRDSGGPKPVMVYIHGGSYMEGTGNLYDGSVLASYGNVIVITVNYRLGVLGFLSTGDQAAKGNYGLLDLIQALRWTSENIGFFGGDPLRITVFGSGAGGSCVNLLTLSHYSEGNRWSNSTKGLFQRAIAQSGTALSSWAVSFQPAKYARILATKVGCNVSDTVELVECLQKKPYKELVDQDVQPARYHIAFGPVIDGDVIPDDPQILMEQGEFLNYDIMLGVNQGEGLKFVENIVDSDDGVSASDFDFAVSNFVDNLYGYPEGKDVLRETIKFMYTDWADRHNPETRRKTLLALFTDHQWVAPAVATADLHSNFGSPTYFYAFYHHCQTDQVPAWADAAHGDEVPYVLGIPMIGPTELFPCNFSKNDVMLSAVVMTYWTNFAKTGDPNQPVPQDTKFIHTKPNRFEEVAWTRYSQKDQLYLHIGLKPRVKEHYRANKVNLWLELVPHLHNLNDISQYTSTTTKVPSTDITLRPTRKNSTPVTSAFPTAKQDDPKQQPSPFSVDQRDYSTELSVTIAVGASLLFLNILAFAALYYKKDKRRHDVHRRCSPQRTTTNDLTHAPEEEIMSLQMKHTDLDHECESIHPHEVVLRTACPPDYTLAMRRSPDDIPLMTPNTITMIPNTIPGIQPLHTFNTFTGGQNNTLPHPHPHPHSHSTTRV
UniProt Q02248: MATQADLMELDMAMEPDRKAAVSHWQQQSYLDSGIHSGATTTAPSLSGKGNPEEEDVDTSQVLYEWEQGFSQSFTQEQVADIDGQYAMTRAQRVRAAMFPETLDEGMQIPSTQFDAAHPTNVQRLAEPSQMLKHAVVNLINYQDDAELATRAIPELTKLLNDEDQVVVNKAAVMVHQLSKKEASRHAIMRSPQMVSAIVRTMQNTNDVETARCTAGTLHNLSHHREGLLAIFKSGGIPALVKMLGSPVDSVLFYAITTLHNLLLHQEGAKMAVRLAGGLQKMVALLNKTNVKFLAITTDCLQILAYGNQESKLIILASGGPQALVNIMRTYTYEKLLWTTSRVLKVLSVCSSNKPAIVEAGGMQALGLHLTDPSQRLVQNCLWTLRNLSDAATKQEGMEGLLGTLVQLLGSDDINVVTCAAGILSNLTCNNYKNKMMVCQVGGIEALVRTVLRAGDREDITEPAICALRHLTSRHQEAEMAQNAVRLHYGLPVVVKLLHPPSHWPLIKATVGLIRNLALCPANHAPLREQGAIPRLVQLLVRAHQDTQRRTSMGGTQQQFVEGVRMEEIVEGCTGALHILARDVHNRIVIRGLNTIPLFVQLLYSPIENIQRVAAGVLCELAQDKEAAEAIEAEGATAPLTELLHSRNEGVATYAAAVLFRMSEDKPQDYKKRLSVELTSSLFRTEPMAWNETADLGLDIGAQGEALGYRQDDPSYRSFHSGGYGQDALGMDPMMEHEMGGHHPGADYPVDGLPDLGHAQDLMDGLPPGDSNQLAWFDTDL

[2] = target: T2, cadherin-8 (mouse (endogenous in P14 forebrain)) (UniProt P97291); experiment: as above
T2 sequence: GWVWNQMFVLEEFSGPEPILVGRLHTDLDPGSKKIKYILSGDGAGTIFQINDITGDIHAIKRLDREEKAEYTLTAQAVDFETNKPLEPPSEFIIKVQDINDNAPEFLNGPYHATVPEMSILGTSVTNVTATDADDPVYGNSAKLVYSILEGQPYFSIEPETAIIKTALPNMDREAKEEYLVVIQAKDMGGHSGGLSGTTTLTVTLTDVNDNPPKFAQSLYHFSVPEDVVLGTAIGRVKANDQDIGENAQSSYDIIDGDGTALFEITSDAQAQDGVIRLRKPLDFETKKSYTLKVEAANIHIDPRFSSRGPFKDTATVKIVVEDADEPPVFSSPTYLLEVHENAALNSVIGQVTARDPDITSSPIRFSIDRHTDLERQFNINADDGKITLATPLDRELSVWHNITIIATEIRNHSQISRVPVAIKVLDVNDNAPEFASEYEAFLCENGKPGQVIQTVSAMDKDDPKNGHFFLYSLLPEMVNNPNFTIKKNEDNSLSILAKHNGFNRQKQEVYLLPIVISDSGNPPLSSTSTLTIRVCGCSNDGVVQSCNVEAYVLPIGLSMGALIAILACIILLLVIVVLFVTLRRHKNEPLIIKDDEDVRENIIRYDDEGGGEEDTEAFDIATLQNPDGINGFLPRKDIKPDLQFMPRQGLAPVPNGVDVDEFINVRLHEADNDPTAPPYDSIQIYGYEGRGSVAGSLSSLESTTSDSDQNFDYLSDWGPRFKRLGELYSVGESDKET

Row | binding [1] | binding [2] | Substance
1 | no binding | no binding | N-cadherin (from UniProt P15116 160-906)
2 | no binding | binds | neuroligin-1 (from UniProt Q99K10 46-843)
3 | binds | binds | β-catenin (from UniProt Q02248 1-781)

Source: paper PMC8266214
